The record followed here is the RNAGym collection of RNA variant scans (doi:10.1093/nar/gkz1192).

The source gives no read counts; variants with many changes may rest on few reads.

B1: CPEB3 Ribozyme (parent)
chain: UAACAGGGGGCCACAGCAGAAGCGUUCACGUCGCAGCCCCUGUCAGAUUCUGGUGAAUCUGCGAAUUCUGCUGUAUAUCUC

In this data set the parent is B1. In words: self-cleavage, relative activity (ratio to wild type); higher = more cleavage; in vitro, sequencing. A digest of the protocol:
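Relative activity compares each variant's cleaved/total read fraction with that of the unmutated ribozyme. To get these fractions, barcoded CPEB3 ribozyme libraries from rounds of error-prone PCR were transcribed with T7 RNA polymerase for 5 hours at 37°C and then given 15 min of DNase I treatment before EDTA was added. The RNAs were reverse transcribed with template switching and sequenced on Illumina, and DNA sequencing linked barcodes to variants. A minimum of 5 reads applied, and three batches were averaged.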
Take UAACAGGGGGCCACGGCAGAAGCGGUCACGUCGCAGCCCCUGCCAGAUUCUGGUGAAUCUGCGAAUUCCGCUGAAUAUCUC: the self-cleavage amounted to 0.28.

For UAACAGGGGGCCACGGCAGAAGCGUUCACGUCGCAGGCCCUGUCAGAUUCUGGUGAAUCUGCGAAUCCUGCAGUAUAUCUC, the self-cleavage is 0.13.

In the case of UAACAGGGGGCCACGUCAGGAGCGUUCACGUCGCAGCCCCUGGCAGAUUCUGGUGAAUCUGGGAAUUCUGCAGUAUAUCUC, the self-cleavage is 0.01.

For UAACAGGGGGCCACGGCAUAAGCUUUCACGUCGCAGCCCCUGUCAGACUCUGGUGUAUCAGCGUAUUCUGCUGUAUAUCUC, the self-cleavage came out at 0.04.

Consider UAACAGGGGGCCACGGCAUGAGCGUUCACGGCGCAGCCCCUGUCAGAUUCUGGUGAAUCCGCGAAUUCUGCUGUAUACCUC, for which the self-cleavage was determined as 0.03.

UAACAGGGGGCCACGGCAGAAGCGUUCACGUCGCAGCCUUUGUCAGAUUCUGGUGAAUCUGCGAAUUCUGCUGUAUAUCUC: the self-cleavage was 0.13.

On to UAACAGGGGGCCACGCCAGAAGCGUUCACGUCGCAGCCCCUGUCAGAUUCUGGUGAAUCUGCGAAUUCUGCUGUACAUCUC, for which the self-cleavage amounted to 0.11.

With UAACAGGGGGCCACGGCAGAAGCGCUCACGUCGCUGCCCCUGUCAGAUUCUGGUGAAUCUGCGAAUUCUGCCGUUUAUCUC, the self-cleavage was found to be 0.25.

In the case of UAACAGGGGGCCACGGCAGAAGCGUUCACGUCGCAGCUCCUGUCAGAUACUGGUGAAUCUGCGAAUUCUGCUGUAUAUCUC, the self-cleavage is 0.26.

For the variant UAACAGGGGGCCACGGCAGAAGCGCUCACGUCGCAGCCCCUGUCAGGUUCUGGUGAAUCUGCGUAUUCCGCUGUAUAUCUC, the self-cleavage amounted to 0.26.

For the variant UAACAGGGGGCCACGGCAGAAGCGUUCACGUCGCAGCCCUUGUCAGAUUCAGGUGAAUCUGCGAAUUCUGCUGUAUAUCUC, the self-cleavage was determined as 0.57.

Take UAACAGGGGGCCACGGCAGAAGCGUUCACGUCGCAGCCCCUGUCAGAUUCUGGUGAAUCUCCGAAUUCUGCUGUACACCUC: the self-cleavage amounted to 0.14.

In the case of UAACAGGGGGCCACGGCAGAAGCGCUCACGUCGCAGCCCCUGUCAGAUUCUGGUGAAUCUGCGAAUUCUGCUGUAUAACCC, the self-cleavage came to 0.32.

As for UAACAGGGGGCCACGGCAGAAGCGUUCACGUCGCACCCCCUGCCGGAUUCUGGUGAGUCUGCGAAUCCUGCUGUAUAUUUC, the self-cleavage was 0.12.

Take UAACAGGGGGCCACGGCAGAAGCGUUCACGUCGCAGACCCUGCCAGAUUCUGGUGAAUCUGCGAAUUCUGCUGUAUAUCUC: the self-cleavage came to 0.03.

For the variant UAACAGGGGGCCACGGCAGAAGCGCUCACGUCGCAGCCCCCGCCAGAUUCUGGUGAAUCUGCGAAUUCUGCUGUAUAUCUC, the self-cleavage came out at 0.03.

For UAACAGGGGGCCACGGCAGAAGCGUUCAGGUCGCAGCCCCUGUCAGAUUCUGGUGAAUCUGCGAAUUCUGCAGUAUAUCUC, the self-cleavage amounted to 0.37.

UAACAGGGGGCCACGGCAGAAGCGUUCACAUCGCAGCCCCCGUCAAAUUCUGGUGAAUCUGCGAAUUCCGCUGUAUAUCUC: the self-cleavage was 0.08.

For the variant UAACAGGGGGCCACGGCAGAAGCGUUCACGUCGCAUCCCCUGUUAGAUUCUGGUGUAUCCGCGAAUUCUGCUGUACAUCUC, the self-cleavage was 0.1.

For UAACAGGGGGCCACGGCAGAAGCGUUCACGUGGCGGCCCCUGUCGGAUUCUGGUGAAUCUGCGAAUUCUGCUGUAUUUCUC, the self-cleavage worked out at 0.39.

For UAACAGGGGGCCACGGCAGAAGCGUACACGCCGCAGCCCCUGUCAGAAUCGGGUGAAUCUGCGAAUUCUGCUGUAUAUCUC, the self-cleavage worked out at 0.05.

UAACAGGGGGCCACGACAGAAGCUUUCACGUCGCAGCCCCUGUCAGAUUCUGGUGAAUCUGCGAAUUCUGCUGUAUUUCUC: the self-cleavage amounted to 0.04.

For the variant UAACAGGGGGCCACGGCAGAAGCGUUCACGUCGCAGCCCCUGUGAGAUUCUGGUGAAUCUGCGAAUUCUGCCGUAUAUCUC, the self-cleavage amounted to 0.59.

UAACAGGGGGCCACGGCAGAAGCGUUCACGUCGCAGGCCCCGUCGGAUUCUGGUGAAUCUGCGUAUUCUGCUGUAUAUCAC: the self-cleavage is 0.13.

Regarding UAACAGGGGGCCACGGCAGAAGCGUUCACGUCGCAGCACCUGUCAGAUUCUGGUGAAUCUGCGAAUUCUGCUGUAUAUCCC, the self-cleavage was 0.1.

As to UAACAGGGGGCCACGGCAGAAGCCUUCACGUCGCAACCCCUGUCAGAUUCUGGCGAAUCUGCGAAUACUGCUGUAUAUCUC, the self-cleavage was determined as 0.05.

For UAACAGGGGGCCACGGCAAAAGCGUACACGUCGCAGCCCCCGUCAGAUCCUGGUGAAUCUGCGAAUUCUGCUGUAUAUCUC, the self-cleavage came to 0.25.

With UAACAGGGGGCCACGGCAGAAGCGUUCACAUCGCAGACCCUGUCAGAUUCUGGUGGACCUGCGAAUUCUGCUGUAUAUCUC, the self-cleavage worked out at 0.08.

As to UAACAGGGGGCCACGGCAGAAGCGUACACGUCGCAGCCCCUGUCAGAUUCUGGUGAAUCUGCGAACUCAGCUGUAUAUCUC, the self-cleavage came to 0.15.

As for UAACAGGGGGCCACGGCAGAAGCAUUCGCGUCGCAGCCCCUGUCAGACUCUGGUGAAUCUGCGAAUUCUGCUGUAUAUCAC, the self-cleavage is 0.

On to UAACAGGGGGCCACGGCAGAAGCAUUCACGUCGCAGCCCCUGUCAGAUUCUGGUGCAACUGCGAAUUCUGCUGUGUAUCUC, for which the self-cleavage was found to be 0.03.

UAACAGGGGGCCACGGCAGAAGCGCUCACGUCGCAGCCCCUGUCAGAUUCUGGUGAGUCCGCGUAUUCUGCUGAAUAUCUC: the self-cleavage stood at 0.08.

UAACAGGGGGCCACGGCAGAAGCGCUCUCGUAGCAGCCCCUGUCAGAUUCUGGUGAAUCUGCGAAUUCUGCUGUAUAUCUC: the self-cleavage came out at 0.11.

Consider UAACAGGGGGCCACGGCAGAAGCGUUCACGUCGCAGCCCCUGUCAGAUUCUGGUGAAUCUACGAAAACUGCUGUAUAUCUC, for which the self-cleavage turned out to be 0.33.

As to UAACAGGGGGCCACGGCAGAAGCGUUCACAUCGCAGCCCCUGUCAGAUUCUGGUGAAUCUGCGAAUUCUGCUGUAUUUCUC, the self-cleavage stood at 0.22.

As for UAACAGGGGGCCACGGCAGAAGCGUUCACGUCGCAGCCCCUGUUAGAUUCUGGUGAAUCUGCGAAUUCUGCUGCAUAUCCC, the self-cleavage worked out at 0.19.

As to UAACAGGGGGCCACGGCAGAAGCGUACACGCCGCAGCCCCUGCCAGAUUCUGGUGAAUCUGCGAAUUCUGCUGUAUAUCUC, the self-cleavage stood at 0.04.

For UAACAGGGGGCCACGGCAGAAGCGUUCACGUCGCAGCCCCUGUCAGAUUCUGGUGAAUUUGCGAGAUCUGCUGUAUAUCUC, the self-cleavage was determined as 0.14.

For UAACAGGGGGCCACGGCAGAAGCGCUCACGUCGCAGCCCCUGUCAGAUCCUGGUGAAUCUGCGAAUUCUGCUGUAUAUCUC, the self-cleavage came to 0.25.

Regarding UAACAGGGGGCCACGACAGAAGCGUUCACGCCGCAGCCCCUGUCAGAUUCUGGUGAAUCUGCGAAUUCUGCUGUAUAUCUC, the self-cleavage was 0.23.

In the case of UAACAGGGGGCCACGGCAGAAGCGUUCAUGACGCAGCCCCUGUCAGAUUCUGGUGAAUCUGCGAAUUCUGCAGUGUAUCUC, the self-cleavage turned out to be 0.11.

Take UAACAGGGGGCCACGGCAGAAGCGCUCGCGUCGCAGCCCCUGCCAGAUUCUGGAGUAUCUGCGAAUUCUGCUGUAUAUCUC: the self-cleavage came to 0.07.

UAACAGGGGGCCACGGCAGAAGCGUUCACGUCGCAGCCCCUGUCAGAUUCUGGUGAAUCUGCAAAUUCUGCUGUAUAUCCC: the self-cleavage was determined as 0.92.

Regarding UAACAGGGGGCCACGGCAGAAGCGCUCACGUCGCAGCCCCUGUCGGAUUCUGGUGAAUCUGCGAACUCUGCUGUAUAUCUC, the self-cleavage was determined as 0.07.

UAACAGGGGGCCACGGCAGAAGCGCUCUCGUCGCAGCCCCUGUCGGAUUCUGGUGAAUCUGCGAAUUCUGCUGUAUAUCUC: the self-cleavage came out at 0.08.

With UAACAGGGGGCCACGGCAGAAGCGUUCACGUCGCAGCCCCUCUCAGUUUCUGGUGAUUCUGCUAAUUCUGCUGUAUCUCUC, the self-cleavage was 0.05.

With UAACAGGGGGCCACGGCAGAAGCGUUCACGUCGGAGCCCCUGUCAGAUUCUGGUGAAUCUGCGGAUUCUGCUGAAUAUCUC, the self-cleavage worked out at 0.07.

Consider UAACAGGGGGCCACGUCAGAAGCGUUCUCGUCGCAGCCCCUGUCAGAUUCUGGUGAAUCUACGAACUCAGCUGUAUAUCUC, for which the self-cleavage was 0.06.

For the variant UAACAGGGGGCCACGGCAGAAGCAUUCACGUCGCAGCCCCUGUCAGAUUCUGGUGAAUCUGCGAAUUCUGCCGCAUAUCUC, the self-cleavage worked out at 0.33.

In the case of UAACAGGGGGCCACGGCAGAAGCGUUCAGGCCGCAGCCCCUGUCAGAUUCUCGAGAAUCUGCGAAUUCUGCUCUAUAUCUC, the self-cleavage amounted to 0.09.

In the case of UAACAGGGGGCCACGGCAGAAGCGAUCACGUCGCAGCCCUUGCCAGAUUCUGGUGGAUCUGCGAACUCUGCUCUAUAUCUC, the self-cleavage came out at 0.1.

On to UAACAGGGGGCCACGGCAGAAGCAUUCACGCCGCAGCCCCUGUCAGAUUCUGGUGAAUCUGCGGAUUCUGCUGUAUACCUC, for which the self-cleavage amounted to 0.04.

As to UAACAGGGGGCCACGGCAGAAGCGCUCGCGUCGCAGCCCCUGUCAGAUUCUGGCGGAUCUGCGAAUUCUGCUGUAUAUCUC, the self-cleavage stood at 0.

For the variant UAACAGGGGGCCACGGCAGAAGCGAUCACGUCGCAGCCCCUGUCAGAUUCUGGUGAAUCUGCGAAUCCUGCUGUAUAUCUC, the self-cleavage was found to be 0.07.

Take UAACAGGGGGCCACGGCAGAAGCGUUCAAGUCGCAGCCCCUGUCAGAUUCUGGUGAGUCUGCGAAUUCCGCCGCAUAUCUC: the self-cleavage is 0.13.

As to UAACAGGGGGCCACGGCAGAAGCGCUCACGUCGCUGCCCCUGUCAGAUUCUGGUGAAUCUGCGAAUUCUGCUGUAUAUCUC, the self-cleavage is 0.22.

On to UAACAGGGGGCCACGGCAGAAGCGUUCACGUCGCAGCCCCUGUCAGAUUCUGGUGAAUCUGUGAACUCCGCUGUAUAUCUC, for which the self-cleavage turned out to be 0.29.

Consider UAACAGGGGGCCACGGCAGAAGCGUUCACGUCGCAGCCCCUGUCAGAUUCUGCUGAAUCUGCGAAUCCUGCUGUAUAUCCC, for which the self-cleavage turned out to be 0.18.

Take UAACAGGGGGCCACGGCAGAAGCGUUCACGUCGCAACCCCUGUCAGAUUCUGGUGAACCUGUGAAUUCUGCUGUAUAUCUC: the self-cleavage was 0.05.

In the case of UAACAGGGGGCCACGGCAGAAGCGUUCACGUCGCACCCCCUGUCAGAUUCUGGUGAAUCUGCGAAUUCUGCUGUGUAUCUC, the self-cleavage worked out at 0.39.

UAACAGGGGGCCACGGCAGAAGCGCUCACGUCGCAGCCCCUGUCAGAUUCUGGUGAAUCUGCGGAUCCUGCUGUAUAUCUC: the self-cleavage amounted to 0.2.

As for UAACAGGGGGCCACGGCAGAAGCGUACACGUCGCAGCCCUUGUCAGAUUCUGGUGAAUCUGCGAAUUCUGCUGUAUAUCUC, the self-cleavage was found to be 0.26.

Consider UAACAGGGGGCCACGGCAGAAGCGUUCACGUCGCAGCCCCUGUCAGAUUCUGGUGAAUCUACGAAUCCUGCUGUGUAUCUC, for which the self-cleavage turned out to be 0.05.

Consider UAACAGGGGGCCACGGCAGAAGCGUUCACGUCGCAGCCCCUGUCAGAUUAUGGUGAAUCUGCGGAUUCUGCUGUUUAUCUC, for which the self-cleavage is 0.29.

In the case of UAACAGGGGGCCACGGCAGAAGCGCUCACGUCGCAGCCCCUGUCAGAUUCUGGUGUAUCUGCGAAUUCUGCCGUAUAUCUC, the self-cleavage worked out at 0.46.

With UAACAGGGGGCCACGGCAGAAGCGUUCACGUCGUAGCCCCUGUCAGAUUCUGGUGAACCAGCGAAUUCUGCCGUGUAUCUC, the self-cleavage was found to be 0.1.

Consider UAACAGGGGGCCACGGCAGAAGCGCUCUCGUCGCAGGCCCUGUCAGAUUCUGGUGAAUCUGCGAAUUCGGCUGUAUAUCUC, for which the self-cleavage is 0.2.

Turning to UAACAGGGGGCCACGGCAGAAGCGUUCACUUCGCAGCCCCUGUCAGAUUCUGGUGAAUCUGCGAAUUCUGCUGUAUUUCUC, the self-cleavage is 0.12.
